Measured values published in the supplement of paper PMC8728848.
This is one part of the list.

Experiments:
Experiment in all cases: glycan array binding signal (z-score within array); higher = stronger binding
Settings in all cases: glycan notation: IUPAC condensed, linker removed
GlcNAc(b1-3)Gal(b1-4)Glc = target: GlcNAc(b1-3)Gal(b1-4)Glc
Outline: (§1)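 Glycan array data came from 3228 arrays in the Consortium for Functional Glycomics database, and only arrays with an available protein sequence were kept. Glycan names were put into IUPAC-condensed notation, and columns mapping to the same glycan were averaged. The binding signal is a within-array Z-score, averaged across arrays of one protein sequence run at different concentrations or buffers and across linkers. A negative Z-score can be read as non-binding.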

[1] = target: GlcNAc(b1-3)Gal(b1-4)GlcNAc
Outline: as §1

[2] = target: GlcNAc(b1-3)Gal(b1-4)GlcNAc(b1-3)Gal(b1-4)GlcNAc
Outline: as §1

GlcNAc(b1-3)GalNAc = target: GlcNAc(b1-3)GalNAc
Outline: as §1

GlcNAc(b1-3)Man = target: GlcNAc(b1-3)Man
Outline: as §1

[3] = target: GlcNAc(b1-3)[GlcNAc(b1-4)][GlcNAc(b1-6)]GlcNAc
Outline: as §1

[4] = target: GlcNAc(b1-3)[GlcNAc(b1-6)]Gal(b1-4)GlcNAc
Outline: as §1

[5] = target: GlcNAc(b1-3)[GlcNAc(b1-6)]GalNAc
Outline: as §1

[6] = target: GlcNAc(b1-4)Gal(b1-4)GlcNAc
Outline: as §1

GlcNAc(b1-4)GlcNAc = target: GlcNAc(b1-4)GlcNAc
Outline: as §1

[7] = target: GlcNAc(b1-4)GlcNAc(b1-4)GlcNAc
Outline: as §1

[8] = target: GlcNAc(b1-4)GlcNAc(b1-4)GlcNAc(b1-4)GlcNAc(b1-4)GlcNAc
Outline: as §1

[9] = target: GlcNAc(b1-4)GlcNAc(b1-4)GlcNAc(b1-4)GlcNAc(b1-4)GlcNAc(b1-4)GlcNAc
Outline: as §1

[10] = target: GlcNAc(b1-4)[GlcNAc(b1-6)]GalNAc
Outline: as §1

[11] = target: GlcNAc(b1-6)Gal(b1-4)GlcNAc
Outline: as §1

GlcNAc(b1-6)GalNAc = target: GlcNAc(b1-6)GalNAc
Outline: as §1

GlcNAc3Prop(b1-4)GlcNAc = target: GlcNAc3Prop(b1-4)GlcNAc
Outline: as §1

[12] = target: GlcNAc6S(b1-3)Gal(b1-4)GlcNAc
Outline: as §1

Kdn(a2-3)Gal(b1-3)GalNAc = target: Kdn(a2-3)Gal(b1-3)GalNAc
Outline: as §1

Kdn(a2-3)Gal(b1-3)GlcNAc = target: Kdn(a2-3)Gal(b1-3)GlcNAc
Outline: as §1

Kdn(a2-3)Gal(b1-4)Glc = target: Kdn(a2-3)Gal(b1-4)Glc
Outline: as §1

Kdn(a2-3)Gal(b1-4)GlcNAc = target: Kdn(a2-3)Gal(b1-4)GlcNAc
Outline: as §1

[13] = target: Kdn(a2-3)Gal(b1-4)[Fuc(a1-3)]GlcNAc
Outline: as §1

Kdn(a2-6)Gal(b1-4)GlcNAc = target: Kdn(a2-6)Gal(b1-4)GlcNAc
Outline: as §1

[14] = target: Man(a1-2)Man(a1-2)Man(a1-3)Man
Outline: as §1

[15] = target: Man(a1-2)Man(a1-2)Man(a1-6)[Man(a1-3)]Man
Outline: as §1

Man(a1-2)Man(a1-3)Man = target: Man(a1-2)Man(a1-3)Man
Outline: as §1

[16] = target: Man(a1-2)Man(a1-3)[Man(a1-2)Man(a1-6)]Man
Outline: as §1

[17] = target: Man(a1-2)Man(a1-3)[Man(a1-2)Man(a1-6)]Man(a1-6)[Man(a1-2)Man(a1-2)Man(a1-3)]Man
Outline: as §1

[18] = target: Man(a1-2)Man(a1-3)[Man(a1-2)Man(a1-6)]Man(a1-6)[Man(a1-2)Man(a1-2)Man(a1-3)]Man(b1-4)GlcNAc(b1-4)GlcNAc
Outline: as §1

[19] = target: Man(a1-2)Man(a1-3)[Man(a1-6)]Man(a1-6)[Man(a1-2)Man(a1-3)]Man(b1-4)GlcNAc(b1-4)GlcNAc
Outline: as §1

[20] = target: Man(a1-2)Man(a1-6)[Man(a1-3)]Man(a1-6)[Man(a1-2)Man(a1-2)Man(a1-3)]Man
Outline: as §1

B1: XCL (Xerocomus chrysenteron) (protein)
chain: MSYSITLRVYQTNRDRGYFSIVEKTVWHFANGGTWSEANGAHTLTQGGSGTSGVLRFLSTKGERITVAVGVHNYKRWCDVVTGLKPDETALVINPQYYNNGGRDYVREKQLAEYSVTSAIGTKVEVVYTVAEGNNLEANVIFS
Q: For B1, which “glycan array binding signal (z-score)” value (GlcNAc(b1-3)Gal(b1-4)Glc) is on record?
A: Its value is 0.236.

Q: And the “glycan array binding signal (z-score)” value [1]?
A: The value was 0.773.

Q: And the “glycan array binding signal (z-score)” value [2]?
A: Its value is 0.789.

Q: And the “glycan array binding signal (z-score)” value (GlcNAc(b1-3)GalNAc)?
A: Its value is 0.729.

Q: And the “glycan array binding signal (z-score)” value (GlcNAc(b1-3)Man)?
A: The value was 0.636.

Q: And the “glycan array binding signal (z-score)” value [3]?
A: Its value is 0.592.

Q: What about the “glycan array binding signal (z-score)” value [4] of the same binder?
A: The value was 1.7.

Q: What about the “glycan array binding signal (z-score)” value [5] of the same binder?
A: The value was 0.896.

Q: What about the “glycan array binding signal (z-score)” value [6] of the same binder?
A: The value was -0.303.

Q: What about the “glycan array binding signal (z-score)” value (GlcNAc(b1-4)GlcNAc) of the same binder?
A: The value was 0.609.

Q: And the “glycan array binding signal (z-score)” value [7]?
A: Its value is 2.02.

Q: And the “glycan array binding signal (z-score)” value [8]?
A: Its value is 0.753.

Q: What about the “glycan array binding signal (z-score)” value [9] of the same binder?
A: Its value is 0.459.

Q: What about the “glycan array binding signal (z-score)” value [10] of the same binder?
A: The value was 0.421.

Q: What about the “glycan array binding signal (z-score)” value [11] of the same binder?
A: The value was 1.01.

Q: What about the “glycan array binding signal (z-score)” value (GlcNAc(b1-6)GalNAc) of the same binder?
A: The value was 0.023.

Q: What about the “glycan array binding signal (z-score)” value (GlcNAc3Prop(b1-4)GlcNAc) of the same binder?
A: The value was -0.323.

Q: And the “glycan array binding signal (z-score)” value [12]?
A: The value was -0.325.

Q: And the “glycan array binding signal (z-score)” value (Kdn(a2-3)Gal(b1-3)GalNAc)?
A: The value was 0.964.

Q: What about the “glycan array binding signal (z-score)” value (Kdn(a2-3)Gal(b1-3)GlcNAc) of the same binder?
A: The value was -0.322.

Q: And the “glycan array binding signal (z-score)” value (Kdn(a2-3)Gal(b1-4)Glc)?
A: The value was -0.294.

Q: What about the “glycan array binding signal (z-score)” value (Kdn(a2-3)Gal(b1-4)GlcNAc) of the same binder?
A: The value was -0.313.

Q: What about the “glycan array binding signal (z-score)” value [13] of the same binder?
A: The value was -0.242.

Q: What about the “glycan array binding signal (z-score)” value (Kdn(a2-6)Gal(b1-4)GlcNAc) of the same binder?
A: Its value is -0.327.

Q: And the “glycan array binding signal (z-score)” value [14]?
A: Its value is -0.322.

Q: What about the “glycan array binding signal (z-score)” value [15] of the same binder?
A: Its value is -0.307.

Q: What about the “glycan array binding signal (z-score)” value (Man(a1-2)Man(a1-3)Man) of the same binder?
A: The value was -0.315.

Q: What about the “glycan array binding signal (z-score)” value [16] of the same binder?
A: The value was -0.323.

Q: And the “glycan array binding signal (z-score)” value [17]?
A: The value was -0.325.

Q: What about the “glycan array binding signal (z-score)” value [18] of the same binder?
A: Its value is -0.321.

Q: What about the “glycan array binding signal (z-score)” value [19] of the same binder?
A: Its value is -0.27.

Q: What about the “glycan array binding signal (z-score)” value [20] of the same binder?
A: The value was -0.322.
